# Test results published in the supplement of paper PMC3334620.
# Over roughly 33,000 sequences, “E-score (-0.5 to 0.5)” has its median near -0.035; the highest 2% begin near 0.35. The list shows a part of the results.
# Biological target: T1, Pdr3 (UniProt P33200)
# T1 sequence: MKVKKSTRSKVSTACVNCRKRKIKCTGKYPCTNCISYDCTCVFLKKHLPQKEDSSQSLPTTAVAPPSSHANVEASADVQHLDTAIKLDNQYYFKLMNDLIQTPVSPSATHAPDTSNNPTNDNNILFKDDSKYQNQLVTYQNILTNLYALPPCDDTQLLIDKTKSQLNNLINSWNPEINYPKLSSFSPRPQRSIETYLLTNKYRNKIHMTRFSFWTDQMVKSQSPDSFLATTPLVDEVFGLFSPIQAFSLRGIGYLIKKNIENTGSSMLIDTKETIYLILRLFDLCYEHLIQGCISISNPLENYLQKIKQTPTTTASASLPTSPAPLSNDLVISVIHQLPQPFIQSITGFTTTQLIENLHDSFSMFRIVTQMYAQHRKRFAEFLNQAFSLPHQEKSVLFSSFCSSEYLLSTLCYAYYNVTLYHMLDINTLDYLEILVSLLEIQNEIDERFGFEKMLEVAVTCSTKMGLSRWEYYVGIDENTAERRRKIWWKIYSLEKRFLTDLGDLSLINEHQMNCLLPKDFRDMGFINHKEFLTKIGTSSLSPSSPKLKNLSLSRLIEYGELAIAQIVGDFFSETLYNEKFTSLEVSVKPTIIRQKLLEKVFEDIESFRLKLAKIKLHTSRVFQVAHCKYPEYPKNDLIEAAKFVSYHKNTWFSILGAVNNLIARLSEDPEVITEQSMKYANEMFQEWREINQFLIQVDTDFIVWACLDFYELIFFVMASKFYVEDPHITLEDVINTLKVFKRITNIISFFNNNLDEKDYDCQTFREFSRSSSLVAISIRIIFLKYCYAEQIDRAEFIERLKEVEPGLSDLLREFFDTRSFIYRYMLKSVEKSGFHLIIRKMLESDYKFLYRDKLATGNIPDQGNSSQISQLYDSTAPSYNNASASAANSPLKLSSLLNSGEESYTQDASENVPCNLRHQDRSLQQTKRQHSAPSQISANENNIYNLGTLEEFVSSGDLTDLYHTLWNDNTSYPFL
# Assay: PBM E-score (8-mer binding enrichment) (E-score (-0.5 to 0.5)); higher = stronger / more preferred TF binding; most listed sequences are background and not binding sites
# Settings: protein concentration: 200 nM; construct: GST-full length
# In short: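 PURExpress in vitro transcription/translation supplied GST-tagged yeast transcription factors, either full-length or DNA-binding domain. Applied at about 100-200 nM to universal all-10-mer Agilent arrays double-stranded by primer extension, the bound protein was detected with fluorescent anti-GST. E-scores, modified Wilcoxon-Mann-Whitney statistics, were given by the Universal PBM Analysis Suite to ungapped eight-base words pooled with their reverse complements after masliner normalisation.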
row,Sequence,PBM E-score
1,GGAGCTTA,-0.0551
2,ACTTTATC,-0.0416
3,AGCTGCAA,-0.0617
4,ACCGACTA,-0.102
5,CGATTTGA,-0.0826
6,GACCCCGA,0.109
7,GGGTGGAC,0.168
8,ACTCCTCC,0.0576
9,TCGAAAAA,0.027
10,AGGCATGA,-0.223
11,AAACCGTC,0.135
12,ACGTAAAC,-0.198
13,TACTTCGA,0.104
14,AATGCTAT,-0.0693
15,GGGCTAGA,-0.105
16,GGTTCCAA,0.273
17,ACAACTAG,0.0926
18,AACAGCGC,-0.0939
19,AAGCCTCA,-0.045
20,TCTCCTAA,-0.167
21,GCACGGTA,-0.063
22,CTGACTCC,-0.147
23,CTCTTAAC,-0.0652
24,ACGAGAAC,-0.0935
25,ACATTTAA,0.0567

row,Sequence,PBM E-score
1,ATGTACGC,-0.207
2,GCCCGCAC,0.164
3,ACGATATG,0.12
4,TACTATAA,0.0062
5,CAGCAACC,-0.074
6,AACGATGA,-0.0263
7,GTTTACGA,-0.17
8,ACCCATAT,-0.00112
9,ACTCGGAG,0.201
10,CCGCTCCG,0.378
11,CAGGCGCG,0.0315
12,CGAGAGCG,0.0432
13,TATCAAGA,-0.113
14,AACGCTTG,-0.17
15,ACCTGATC,-0.152
16,TGTATAAA,-0.0964
17,AAACCCTC,-0.0885
18,ACAGAACC,-0.208
19,CCTCCGAA,0.152
20,GAACAGGC,0.0536
21,AATAGCGA,-0.0102
22,AAACCACT,-0.088
23,GCCCGGAC,0.282
24,CTGATTGA,-0.125
25,ACTCGCTA,0.0214

row,Sequence,PBM E-score
1,AATACCTG,-0.0442
2,AATAGGTC,-0.0646
3,ACCGATTA,0.223
4,ATTCCCAC,-0.0385
5,AATGAGGC,-0.0677
6,GCAATCAC,-0.00582
7,TAGGCAAA,-0.226
8,AAAGGCGG,0.0756
9,GCACTTCC,-0.0637
10,ACCCACCT,-0.21
11,AGTCGAAT,0.0199
12,AACCGTTC,0.258
13,AGGTGGGC,-0.0925
14,CCTGTCAC,-0.11
15,TATAACAA,0.0804
16,ATTTCGTC,0.0296
17,CCCGAGGG,0.211
18,GTGAAGTA,-0.0346
19,AATGAGAA,-0.165
20,CCTGTACC,-0.224
21,CCGACAAC,0.044
22,CGTCACAG,0.0195
23,ACGCACAC,0.05
24,AGTGTGAT,-0.0147
25,ATAAGCGA,0.0101

row,Sequence,PBM E-score
1,ATTGCACA,0.00491
2,CGCACGAC,-0.115
3,CGGGGAGC,0.212
4,GAGAAGTA,-0.0889
5,CTCCCAGA,-0.309
6,GCCATGGC,-0.142
7,ACAGAAGC,-0.0348
8,AGCACCCA,-0.223
9,ATACGAAC,0.105
10,GAGGGGGA,-0.248
11,AGTTCCTA,0.0135
12,ATCATGTG,-0.122
13,AACTTAGT,0.0208
14,ATAATGCG,0.0962
15,GGCTCCCC,-0.0502
16,CGGGATAC,0.342
17,ACTGATCG,-0.21
18,GCCTGGGA,0.0624
19,AAACTACA,0.0828
20,ACGGCAGA,0.258
21,CATCGAAC,0.0312
22,ACTGTGTG,0.00651
23,AACCTAGT,-0.0312
24,ATTTTTAC,-0.193
25,CGTCTATA,-0.0571

row,Sequence,PBM E-score
1,ACAGTAGT,-0.0966
2,GCGTAGAA,-0.136
3,CACGACCC,0.00094
4,CCGTCAGA,0.0984
5,CCGCCGGC,0.401
6,CTTTCCCC,0.117
7,ACTGAAAC,0.0653
8,ACACAAAA,0.0544
9,ATGTTGTA,-0.0741
10,AGCTGCTG,-0.0512
11,CATATAGA,-0.0939
12,ATCTGGTG,-0.0696
13,ATGCCCAA,-0.119
14,ACGCGATC,0.135
15,CGAGGACA,0.0468
16,AGTCTGAT,-0.133
17,GAGACACC,-0.058
18,GGCTTCAC,0.0412
19,GCCGATGA,0.203
20,AAGTGTGT,-0.187
21,GGAAAGGA,0.256
22,GACCTAAC,-0.00092
23,AACGCCGG,0.245
24,CTAAACGA,-0.068
25,CTTCTCGA,-0.199

row,Sequence,PBM E-score
1,CGACCCCC,-0.282
2,GAGGTCAC,-0.0512
3,ACCGGTGG,-0.019
4,CCACAGAC,-0.233
5,GGACTCAC,0.00627
6,TAATCACA,-0.142
7,ACGAAAGC,-0.165
8,ATGAACCG,-0.138
9,ACCTTAAG,-0.116
10,CCCCGAAA,0.209
11,AATCGTCG,0.0795
12,ACGTTGAC,-0.228
13,CAAGGCGG,0.00901
14,AGAAGCTA,-0.125
15,ATACCCAA,-0.047
16,AATGGCAC,-0.0476
17,GTCCCCAA,-0.159
18,GCAGGTAA,-0.0309
19,AATGCGCG,0.341
20,GTGGTAGA,-0.152
21,CTCGCGCA,-0.029
22,ACACGCCT,-0.296
23,ATCTGCTA,-0.241
24,AATGACCG,0.151
25,CCGTCGAC,0.234

row,Sequence,PBM E-score
1,GCTGATAC,-0.0772
2,CCCCAGGA,-0.164
3,GCGCAGAC,0.0291
4,CTCCCGAC,0.083
5,AAGGCTTC,-0.145
6,ACGCGATG,0.0398
7,CCAGAAGA,-0.334
8,CCTTTCAA,-0.0764
9,GAGAGATA,-0.0138
10,CCTACAAG,-0.0848
11,ATGATAGA,0.00887
12,CGACTCTA,-0.131
13,CCCTGACC,0.0389
14,CACCACAG,-0.0522
15,ACCAAACA,-0.0428
16,ACAGCCCC,0.0468
17,CAGAAATG,-0.189
18,GGGTGAGA,-0.0394
19,CGGTTCAG,-0.134
20,AGTGATCG,-0.104
21,ATGAACGG,0.0922
22,CTAGCGTC,-0.215
23,ACTGTATA,-0.0502
24,AGGATCAC,-0.231
25,CCCTCAAG,-0.267

row,Sequence,PBM E-score
1,CTGACGTA,-0.156
2,CTCGGTGA,0.103
3,CAAAGAAC,0.00601
4,ACCTCAAC,-0.0674
5,CCATCAGA,-0.162
6,GTATAGAA,-0.0532
7,ATACCATA,0.0258
8,CGTTGAGC,0.0731
9,ACGCCCGT,0.131
10,TGGACGAA,-0.058
11,AAATAACT,0.0711
12,CATTAAGG,-0.0219
13,CGACACCG,0.153
14,AGCTATGG,-0.0641
15,CTGGTGCC,-0.206
16,CAACCTAA,-0.107
17,GAAAGGCA,0.0934
18,GGAGTGGA,0.0438
19,ACGGCGAA,0.128
20,ATCTGTAC,-0.013
21,CATGAAAC,0.0519
22,TACGTCCA,-0.17
23,CCCTGGTA,-0.205
24,GTCGACGA,0.138
25,ATTCTGCG,0.106

row,Sequence,PBM E-score
1,AATCTGGC,-0.139
2,GATGCTCA,0.0461
3,AACGAGCG,-0.00371
4,AAGTCGCG,0.108
5,TAAAATAA,0.0341
6,CGGACTTC,0.253
7,GCTCGACC,-0.0284
8,ACAGTAAT,-0.0206
9,GGACAGTA,0.0864
10,CACCTGAA,-0.0512
11,CTGCTTTA,0.137
12,TCGGTTCA,-0.231
13,CACCTATC,-0.00292
14,CTACCGGA,0.335
15,AGTGACAG,-0.057
16,GATCAGAA,-0.118
17,CATTCAGC,-0.141
18,AAGGGCAA,0.162
19,ATACCCCG,0.289
